Experimental data from publication PMC7561547, “Population pharmacokinetic analysis of phase 1 bemarituzumab data to support phase 2 gastroesophageal adenocarcinoma FIGHT trial” (Cancer Chemotherapy and Pharmacology, 2020).

Molecular target: Bemarituzumab (human (humanized IgG1))
Experiment: SPR; Biacore T100; bemarituzumab captured on a dextran chip via covalently attached protein A; five concentrations (0 nM to 1000 nM) of FcγRIIIa (V158) in HEPES buffered saline with 0.05% surfactant P20 flowed over; 1:1 binding model
Conditions: both partners purified

Kd: 9.2 nM
B1: human Fc gamma receptor IIIA (V158) (receptor)
chain: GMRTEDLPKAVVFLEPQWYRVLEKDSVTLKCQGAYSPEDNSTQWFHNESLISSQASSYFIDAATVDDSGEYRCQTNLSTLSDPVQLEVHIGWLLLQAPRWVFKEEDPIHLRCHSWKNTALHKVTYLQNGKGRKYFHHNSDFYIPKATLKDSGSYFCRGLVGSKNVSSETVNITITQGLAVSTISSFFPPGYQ
modifications: Soluble analyte in SPR; construct limits are not given, so the extracellular region ([…]) is taken by convention from the entry features. V158 is the conventional allotype numbering, equal to pre
